Data as given in patent US20150299178A1, “Thiazole Derivatives as Alpha 7 NACHR Modulators” (LUPIN LIMITED, priority 2012, published 2015).
Some entries share one result that the patent states for a list of compounds.

What follows are molecules tested against T1, α7 nAChR (Homo sapiens, UniProt P36544) (assay: cell-based real-time kinetic FLIPR Ca2+ assay, potentiation of agonist response (fold PAM activity)). Conditions: 1 μM test compound, agonist PNU-282987, 10 μM, human IMR-32 cells with native expression of α7 nAChR, intracellular Ca2+.
T1 construct: human IMR-32 cells with native expression of α7 nAChR; endogenous in cells; host or cells: human IMR-32 cells
T1 sequence (P36544 23-502): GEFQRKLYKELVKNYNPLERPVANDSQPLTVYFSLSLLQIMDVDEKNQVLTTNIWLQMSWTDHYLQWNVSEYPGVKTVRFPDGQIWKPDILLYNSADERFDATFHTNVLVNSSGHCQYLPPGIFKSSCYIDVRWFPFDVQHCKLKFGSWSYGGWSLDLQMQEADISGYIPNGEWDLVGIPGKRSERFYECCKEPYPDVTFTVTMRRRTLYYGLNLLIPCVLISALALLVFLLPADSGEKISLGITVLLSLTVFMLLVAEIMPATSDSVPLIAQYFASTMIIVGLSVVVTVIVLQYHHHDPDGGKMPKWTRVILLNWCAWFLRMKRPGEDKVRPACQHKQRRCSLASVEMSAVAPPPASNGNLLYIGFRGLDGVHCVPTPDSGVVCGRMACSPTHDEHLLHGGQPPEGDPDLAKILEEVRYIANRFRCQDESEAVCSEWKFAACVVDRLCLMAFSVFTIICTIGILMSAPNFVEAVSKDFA
With `CC(C)(C(=O)N1CC2CC2C1)c1nc(-c2ccc(Cl)cc2)c(-c2ccc(S(N)(=O)=O)cc2)s1` (stereo not shown) [Compound 13, 4-(2-(1-(3-azabicyclo[3.1.0]hexan-3-yl)-2-methyl-1-oxopropan-2-yl)-4-(4-chlorophenyl)thiazol-5-yl)benzenesulfonamide] the “Fold activation at 1 μM conc. (Group)” value was “A (compounds with activity between 1 to 5 folds are grouped as A)”.
With `CC(C)(C(=O)N1CCCC1)c1nc(-c2ccc(Cl)cc2)c(-c2ccc(S(N)(=O)=O)cc2)s1` [Compound 14, 4-(4-(4-chlorophenyl)-2-(2-methyl-1-oxo-1-(pyrrolidin-1-yl)propan-2-yl)thiazol-5-yl)benzenesulfonamide] the “Fold activation at 1 μM conc. (Group)” value was “A (compounds with activity between 1 to 5 folds are grouped as A)”.
For `NS(=O)(=O)c1ccc(-c2sc(C3(C(=O)N4CC5CC5C4)CC3)nc2-c2ccc(Cl)cc2)cc1` (stereo not shown) [Compound 15, 4-(2-(1-(3-azabicyclo[3.1.0]hexane-3-carbonyl)cyclopropyl)-4-(4-chlorophenyl)thiazol-5-yl)benzenesulfonamide], the “Fold activation at 1 μM conc. (Group)” value was “A (compounds with activity between 1 to 5 folds are grouped as A)”.
With `NS(=O)(=O)c1ccc(-c2sc(C3(C(=O)N4CCCC4)CC3)nc2-c2ccc(Cl)cc2)cc1` [Compound 16, 4-(4-(4-chlorophenyl)-2-(1-(pyrrolidine-1-carbonyl)cyclopropyl)thiazol-5-yl)benzenesulfonamide] the “Fold activation at 1 μM conc. (Group)” value was “A (compounds with activity between 1 to 5 folds are grouped as A)”.
With `NS(=O)(=O)c1ccc(-c2sc(C(F)(F)C(=O)N3CC4CC4C3)nc2-c2ccc(Cl)cc2)cc1` (stereo not shown) [Compound 17, 4-(2-(2-(3-azabicyclo[3.1.0]hexan-3-yl)-1,1-difluoro-2-oxoethyl)-4-(4-chlorophenyl)thiazol-5-yl)benzenesulfonamide] the “Fold activation at 1 μM conc. (Group)” value was “A (compounds with activity between 1 to 5 folds are grouped as A)”.
`NS(=O)(=O)c1ccc(-c2sc(C(F)(F)C(=O)N3CCCC3)nc2-c2ccc(Cl)cc2)cc1` [Compound 18, 4-(4-(4-chlorophenyl)-2-(1,1-difluoro-2-oxo-2-(pyrrolidin-1-yl)ethyl)thiazol-5-yl)benzenesulfonamide] was tested, and the “Fold activation at 1 μM conc. (Group)” value was “B (the compounds with activity between 5.1 folds and 15 folds are grouped as B)”.
`NS(=O)(=O)c1ccc(-c2sc(-c3cccc(F)n3)nc2-c2ccc(Cl)cc2)cc1` [Compound 19, 4-(4-(4-chlorophenyl)-2-(6-fluoropyridin-2-yl)thiazol-5-yl)benzenesulfonamide] was tested, and the “Fold activation at 1 μM conc. (Group)” value was “C (the compounds with activity above 15 folds are grouped as C)”.
`NS(=O)(=O)c1ccc(-c2sc(-c3cccnc3)nc2-c2ccc(Cl)cc2)cc1` [Compound 20, 4-(4-(4-chlorophenyl)-2-(pyridin-3-yl)thiazol-5-yl)benzenesulfonamide] was tested, and the “Fold activation at 1 μM conc. (Group)” value was “C (the compounds with activity above 15 folds are grouped as C)”.
`NS(=O)(=O)c1ccc(-c2sc(-c3ccncc3)nc2-c2ccc(Cl)cc2)cc1` [Compound 21, 4-(4-(4-chlorophenyl)-2-(pyridin-4-yl)thiazol-5-yl)benzenesulfonamide] was tested, and the “Fold activation at 1 μM conc. (Group)” value was “A (compounds with activity between 1 to 5 folds are grouped as A)”.
In the case of `NS(=O)(=O)c1ccc(-c2sc(-c3ccccn3)nc2-c2ccc(Cl)cc2)cc1` [Compound 22, 4-(4-(4-chlorophenyl)-2-(pyridin-2-yl)thiazol-5-yl)benzenesulfonamide], the “Fold activation at 1 μM conc. (Group)” value is reported as “C (the compounds with activity above 15 folds are grouped as C)”.
With `NS(=O)(=O)c1ccc(-c2sc(-c3ccccn3)nc2-c2ccc(Cl)cc2)c(F)c1` [Compound 23, 4-(4-(4-chlorophenyl)-2-(pyridin-2-yl)thiazol-5-yl)-3-fluorobenzenesulfonamide] the “Fold activation at 1 μM conc. (Group)” value was “C (the compounds with activity above 15 folds are grouped as C)”.
For `NS(=O)(=O)c1ccc(-c2sc(-c3ccccc3)nc2-c2ccc(Cl)cc2)cc1` [Compound 24, 4-(4-(4-chlorophenyl)-2-phenylthiazol-5-yl)benzenesulfonamide], the “Fold activation at 1 μM conc. (Group)” value was “C (the compounds with activity above 15 folds are grouped as C)”.
For `NS(=O)(=O)c1ccc(-c2sc(-c3ccc(F)cn3)nc2-c2ccc(Cl)cc2)cc1` [Compound 25, 4-(4-(4-chlorophenyl)-2-(5-fluoropyridin-2-yl)thiazol-5-yl)benzenesulfonamide], the “Fold activation at 1 μM conc. (Group)” value was “C (the compounds with activity above 15 folds are grouped as C)”.
With `CN(C(=O)c1nc(-c2ccc(Cl)cc2)c(-c2ccc(S(N)(=O)=O)cc2)s1)C1CC1` [Compound 26, 4-(4-chlorophenyl)-N-cyclopropyl-N-methyl-5-(4-sulfamoylphenyl)thiazole-2-carboxamide] the “Fold activation at 1 μM conc. (Group)” value was “B (the compounds with activity between 5.1 folds and 15 folds are grouped as B)”.
With `CN(C(=O)c1nc(-c2ccc(Cl)cc2)c(-c2ccc(S(N)(=O)=O)cc2F)s1)C1CC1` [Compound 27, 4-(4-chlorophenyl)-N-cyclopropyl-5-(2-fluoro-4-sulfamoylphenyl)-N-methylthiazole-2-carboxamide] the “Fold activation at 1 μM conc. (Group)” value was “C (the compounds with activity above 15 folds are grouped as C)”.
`CN(C(=O)c1nc(-c2ccc(Cl)cc2)c(-c2ccc(S(N)(=O)=O)cc2)s1)C1CCCC1` [Compound 28, 4-(4-chlorophenyl)-N-cyclopentyl-N-methyl-5-(4-sulfamoylphenyl)thiazole-2-carboxamide] was tested, and the “Fold activation at 1 μM conc. (Group)” value was “A (compounds with activity between 1 to 5 folds are grouped as A)”.
In the case of `CN(C(=O)c1nc(-c2ccc(Cl)cc2)c(-c2ccc(S(N)(=O)=O)cc2)s1)C1CCCCC1` [Compound 29, 4-(4-chlorophenyl)-N-cyclohexyl-N-methyl-5-(4-sulfamoylphenyl)thiazole-2-carboxamide], the “Fold activation at 1 μM conc. (Group)” value is reported as “A (compounds with activity between 1 to 5 folds are grouped as A)”.
In the case of `NS(=O)(=O)c1ccc(-c2sc(C(=O)NC3CCCCC3)nc2-c2ccc(Cl)cc2)cc1` [Compound 31, 4-(4-chlorophenyl)-N-cyclohexyl-5-(4-sulfamoylphenyl)thiazole-2-carboxamide], the “Fold activation at 1 μM conc. (Group)” value is reported as “A (compounds with activity between 1 to 5 folds are grouped as A)”.
`CCCN(CCC)C(=O)c1nc(-c2ccc(Cl)cc2)c(-c2ccc(S(N)(=O)=O)cc2)s1` [Compound 32, 4-(4-chlorophenyl)-N,N-dipropyl-5-(4-sulfamoylphenyl)thiazole-2-carboxamide] was tested, and the “Fold activation at 1 μM conc. (Group)” value was “A (compounds with activity between 1 to 5 folds are grouped as A)”.
In the case of `CCCN(CCO)C(=O)c1nc(-c2ccc(Cl)cc2)c(-c2ccc(S(N)(=O)=O)cc2)s1` [Compound 33, 4-(4-chlorophenyl)-N-(2-hydroxyethyl)-N-propyl-5-(4-sulfamoylphenyl)thiazole-2-carboxamide], the “Fold activation at 1 μM conc. (Group)” value is reported as “A (compounds with activity between 1 to 5 folds are grouped as A)”.
In the case of `CCN(C(=O)C1CC1)c1nc(-c2ccc(Cl)cc2)c(-c2ccc(S(N)(=O)=O)cc2)s1` [Compound 34, N-(4-(4-chlorophenyl)-5-(4-sulfamoylphenyl)thiazol-2-yl)-N-ethylcyclopropanecarboxamide], the “Fold activation at 1 μM conc. (Group)” value is reported as “B (the compounds with activity between 5.1 folds and 15 folds are grouped as B)”.
With `CN(C(=O)C1CC1)c1nc(-c2ccc(Cl)cc2)c(-c2ccc(S(N)(=O)=O)cc2)s1` [Compound 35, N-(4-(4-chlorophenyl)-5-(4-sulfamoylphenyl)thiazol-2-yl)-N-methylcyclopropane carboxamide] the “Fold activation at 1 μM conc. (Group)” value was “C (the compounds with activity above 15 folds are grouped as C)”.
In the case of `CN(C(=O)C1CCCC1)c1nc(-c2ccc(Cl)cc2)c(-c2ccc(S(N)(=O)=O)cc2)s1` [Compound 36, N-(4-(4-chlorophenyl)-5-(4-sulfamoylphenyl)thiazol-2-yl)-N-methylcyclopentane carboxamide], the “Fold activation at 1 μM conc. (Group)” value is reported as “B (the compounds with activity between 5.1 folds and 15 folds are grouped as B)”.
In the case of `CN(C(=O)C1CCCCC1)c1nc(-c2ccc(Cl)cc2)c(-c2ccc(S(N)(=O)=O)cc2)s1` [Compound 37, N-(4-(4-chlorophenyl)-5-(4-sulfamoylphenyl)thiazol-2-yl)-N-methylcyclohexane carboxamide], the “Fold activation at 1 μM conc. (Group)” value is reported as “A (compounds with activity between 1 to 5 folds are grouped as A)”.
With `CCC(=O)N(C)c1nc(-c2ccc(Cl)cc2)c(-c2ccc(S(N)(=O)=O)cc2)s1` [Compound 38, N-(4-(4-chlorophenyl)-5-(4-sulfamoylphenyl)thiazol-2-yl)-N-methylpropionamide] the “Fold activation at 1 μM conc. (Group)” value was “C (the compounds with activity above 15 folds are grouped as C)”.
For `COCC(=O)N(C)c1nc(-c2ccc(Cl)cc2)c(-c2ccc(S(N)(=O)=O)cc2)s1` [Compound 39, N-(4-(4-chlorophenyl)-5-(4-sulfamoylphenyl)thiazol-2-yl)-2-methoxy-N-methylacetamide], the “Fold activation at 1 μM conc. (Group)” value was “B (the compounds with activity between 5.1 folds and 15 folds are grouped as B)”.
In the case of `CC(=O)N(c1nc(-c2ccc(Cl)cc2)c(-c2ccc(S(N)(=O)=O)cc2)s1)C1CC1` [Compound 40, N-(4-(4-chlorophenyl)-5-(4-sulfamoylphenyl)thiazol-2-yl)-N-cyclopropylacetamide], the “Fold activation at 1 μM conc. (Group)” value is reported as “C (the compounds with activity above 15 folds are grouped as C)”.
For `NS(=O)(=O)c1ccc(-c2sc(N(C(=O)C3CC3)C3CC3)nc2-c2ccc(Cl)cc2)cc1` [Compound 42, N-(4-(4-chlorophenyl)-5-(4-sulfamoylphenyl)thiazol-2-yl)-N-cyclopropylcyclopropanecarboxamide], the “Fold activation at 1 μM conc. (Group)” value was “A (compounds with activity between 1 to 5 folds are grouped as A)”.
